Reference: PMC8064142
These are yes or no findings as the source states them, for the method shown. Binding seen in cells or lysates may run through a third protein. Some results given as binding are weak or reduced against the parent protein; the word gives no strength. For some assays here: Sequences can lack the tags named with a protein.

The chains behind the UniProt entries cited, without tags or fusion partners.
UniProt Q66K64: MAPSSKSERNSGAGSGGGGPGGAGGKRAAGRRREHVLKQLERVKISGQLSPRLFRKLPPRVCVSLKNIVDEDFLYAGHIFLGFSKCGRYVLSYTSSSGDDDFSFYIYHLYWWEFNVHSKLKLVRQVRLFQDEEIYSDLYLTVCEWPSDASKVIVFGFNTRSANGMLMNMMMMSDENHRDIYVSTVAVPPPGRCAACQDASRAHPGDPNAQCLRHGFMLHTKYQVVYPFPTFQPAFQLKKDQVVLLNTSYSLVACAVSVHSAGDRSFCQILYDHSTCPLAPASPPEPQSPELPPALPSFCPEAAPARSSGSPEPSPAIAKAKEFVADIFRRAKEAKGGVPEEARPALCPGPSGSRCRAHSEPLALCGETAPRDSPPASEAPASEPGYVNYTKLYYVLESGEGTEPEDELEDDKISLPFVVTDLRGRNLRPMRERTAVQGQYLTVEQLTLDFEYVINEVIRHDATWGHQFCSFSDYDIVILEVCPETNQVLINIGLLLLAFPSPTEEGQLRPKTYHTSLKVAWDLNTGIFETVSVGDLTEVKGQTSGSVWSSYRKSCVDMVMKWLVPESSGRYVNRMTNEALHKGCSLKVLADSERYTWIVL

How the values were obtained:
[1] = biological target: T1, endogenous ZEB1 (SMMC-7721 cells) (human (endogenous in SMMC-7721)) (UniProt P37275); experiment: co-IP; endogenous proteins of SMMC-7721 cells, 10 μM MG132 for 6 h; RIPA buffer; anti-ZEB1 or anti-DCAF15 antibody or IgG (mock IP), protein A/G beads; Western blot
T1 sequence: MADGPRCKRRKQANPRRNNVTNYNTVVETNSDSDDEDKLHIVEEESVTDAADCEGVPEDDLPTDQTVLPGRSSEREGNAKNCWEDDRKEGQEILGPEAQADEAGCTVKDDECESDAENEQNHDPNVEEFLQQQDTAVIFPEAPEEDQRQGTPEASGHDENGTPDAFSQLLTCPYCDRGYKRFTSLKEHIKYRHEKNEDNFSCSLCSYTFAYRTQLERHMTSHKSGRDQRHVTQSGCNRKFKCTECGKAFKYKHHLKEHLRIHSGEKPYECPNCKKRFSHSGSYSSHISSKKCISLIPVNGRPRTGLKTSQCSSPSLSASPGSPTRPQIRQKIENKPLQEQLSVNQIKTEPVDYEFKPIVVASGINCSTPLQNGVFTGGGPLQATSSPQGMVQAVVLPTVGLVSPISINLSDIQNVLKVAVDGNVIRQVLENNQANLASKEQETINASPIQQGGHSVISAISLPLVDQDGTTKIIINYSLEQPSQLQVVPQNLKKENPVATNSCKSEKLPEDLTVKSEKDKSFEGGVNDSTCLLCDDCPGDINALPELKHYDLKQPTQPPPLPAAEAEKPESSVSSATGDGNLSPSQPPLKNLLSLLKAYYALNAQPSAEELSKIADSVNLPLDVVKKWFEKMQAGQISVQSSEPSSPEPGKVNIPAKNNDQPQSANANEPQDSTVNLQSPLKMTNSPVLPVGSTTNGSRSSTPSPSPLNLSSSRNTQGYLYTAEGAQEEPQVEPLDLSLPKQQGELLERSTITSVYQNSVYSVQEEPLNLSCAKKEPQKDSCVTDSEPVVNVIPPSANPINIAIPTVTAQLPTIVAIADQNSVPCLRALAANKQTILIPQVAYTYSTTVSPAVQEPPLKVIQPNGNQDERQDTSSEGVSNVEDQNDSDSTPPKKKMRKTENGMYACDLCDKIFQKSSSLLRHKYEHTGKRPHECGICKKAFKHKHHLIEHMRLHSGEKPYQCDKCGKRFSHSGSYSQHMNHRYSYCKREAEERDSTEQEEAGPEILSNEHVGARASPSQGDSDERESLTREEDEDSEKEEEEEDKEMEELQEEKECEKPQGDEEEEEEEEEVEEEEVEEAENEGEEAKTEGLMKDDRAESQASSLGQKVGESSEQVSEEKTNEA

Flag-ZEB1 = biological target: T2, Flag-ZEB1 (UniProt P37275); experiment: co-IP; Flag- and Myc-tagged proteins co-expressed in HEK293T cells; lysed in NP40 buffer; anti-Flag M2 agarose beads at 4°C overnight; eluted with Flag peptide/BC100; Western blot
T2 sequence: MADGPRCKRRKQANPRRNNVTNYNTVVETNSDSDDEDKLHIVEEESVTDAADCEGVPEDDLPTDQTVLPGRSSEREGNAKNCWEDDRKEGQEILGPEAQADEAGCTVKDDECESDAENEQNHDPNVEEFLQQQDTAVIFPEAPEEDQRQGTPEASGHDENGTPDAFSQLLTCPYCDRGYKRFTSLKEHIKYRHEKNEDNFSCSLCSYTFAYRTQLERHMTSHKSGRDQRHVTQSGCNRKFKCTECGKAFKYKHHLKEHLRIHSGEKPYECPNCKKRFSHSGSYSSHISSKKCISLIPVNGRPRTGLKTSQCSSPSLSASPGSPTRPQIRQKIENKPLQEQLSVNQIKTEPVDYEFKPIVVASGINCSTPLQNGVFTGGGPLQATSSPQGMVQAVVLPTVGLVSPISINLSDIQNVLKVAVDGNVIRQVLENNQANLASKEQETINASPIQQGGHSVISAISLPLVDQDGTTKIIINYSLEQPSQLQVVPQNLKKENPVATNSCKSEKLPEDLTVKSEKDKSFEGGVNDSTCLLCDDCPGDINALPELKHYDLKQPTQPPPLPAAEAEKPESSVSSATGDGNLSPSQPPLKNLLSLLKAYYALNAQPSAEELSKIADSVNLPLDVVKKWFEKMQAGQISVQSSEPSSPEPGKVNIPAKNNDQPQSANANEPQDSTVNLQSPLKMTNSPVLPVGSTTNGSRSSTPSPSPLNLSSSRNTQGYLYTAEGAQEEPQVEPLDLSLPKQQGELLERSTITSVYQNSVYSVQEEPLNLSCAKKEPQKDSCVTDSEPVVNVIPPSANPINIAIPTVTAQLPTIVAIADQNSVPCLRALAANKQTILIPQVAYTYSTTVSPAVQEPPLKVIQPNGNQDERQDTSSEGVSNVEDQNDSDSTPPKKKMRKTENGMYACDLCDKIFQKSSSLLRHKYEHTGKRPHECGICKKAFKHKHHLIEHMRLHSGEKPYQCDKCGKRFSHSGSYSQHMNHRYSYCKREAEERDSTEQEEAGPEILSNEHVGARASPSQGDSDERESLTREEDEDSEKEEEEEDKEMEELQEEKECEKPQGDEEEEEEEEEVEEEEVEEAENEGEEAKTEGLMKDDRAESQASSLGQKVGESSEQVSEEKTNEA

Flag-DCAF15 (human) = Flag-DCAF15 (human) (UniProt Q66K64); experiment: as above

Molecule | binding (Flag-DCAF15 (human)) | further results
endogenous DCAF15 (from UniProt Q66K64 1-600) |  | binding [1]: binds
Myc-DCAF15 (from UniProt Q66K64 1-600) |  | binding (Flag-ZEB1): binds
Myc-ZEB1 (full-length) (protein, UniProt P37275 1-1124) MADGPRCKRRKQANPRRNNVTNYNTVVETNSDSDDEDKLHIVEEESVTDAADCEGVPEDDLPTDQTVLPGRSSEREGNAKNCWEDDRKEGQEILGPEAQADEAGCTVKDDECESDAENEQNHDPNVEEFLQQQDTAVIFPEAPEEDQRQGTPEASGHDENGTPDAFSQLLTCPYCDRGYKRFTSLKEHIKYRHEKNEDNFSCSLCSYTFAYRTQLERHMTSHKSGRDQRHVTQSGCNRKFKCTECGKAFKYKHHLKEHLRIHSGEKPYECPNCKKRFSHSGSYSSHISSKKCISLIPVNGRPRTGLKTSQCSSPSLSASPGSPTRPQIRQKIENKPLQEQLSVNQIKTEPVDYEFKPIVVASGINCSTPLQNGVFTGGGPLQATSSPQGMVQAVVLPTVGLVSPISINLSDIQNVLKVAVDGNVIRQVLENNQANLASKEQETINASPIQQGGHSVISAISLPLVDQDGTTKIIINYSLEQPSQLQVVPQNLKKENPVATNSCKSEKLPEDLTVKSEKDKSFEGGVNDSTCLLCDDCPGDINALPELKHYDLKQPTQPPPLPAAEAEKPESSVSSATGDGNLSPSQPPLKNLLSLLKAYYALNAQPSAEELSKIADSVNLPLDVVKKWFEKMQAGQISVQSSEPSSPEPGKVNIPAKNNDQPQSANANEPQDSTVNLQSPLKMTNSPVLPVGSTTNGSRSSTPSPSPLNLSSSRNTQGYLYTAEGAQEEPQVEPLDLSLPKQQGELLERSTITSVYQNSVYSVQEEPLNLSCAKKEPQKDSCVTDSEPVVNVIPPSANPINIAIPTVTAQLPTIVAIADQNSVPCLRALAANKQTILIPQVAYTYSTTVSPAVQEPPLKVIQPNGNQDERQDTSSEGVSNVEDQNDSDSTPPKKKMRKTENGMYACDLCDKIFQKSSSLLRHKYEHTGKRPHECGICKKAFKHKHHLIEHMRLHSGEKPYQCDKCGKRFSHSGSYSQHMNHRYSYCKREAEERDSTEQEEAGPEILSNEHVGARASPSQGDSDERESLTREEDEDSEKEEEEEDKEMEELQEEKECEKPQGDEEEEEEEEEVEEEEVEEAENEGEEAKTEGLMKDDRAESQASSLGQKVGESSEQVSEEKTNEA | binds | 
Myc-ZEB1-Δ1 (amino acids 1-340) (domain or fragment, UniProt P37275 1-340) MADGPRCKRRKQANPRRNNVTNYNTVVETNSDSDDEDKLHIVEEESVTDAADCEGVPEDDLPTDQTVLPGRSSEREGNAKNCWEDDRKEGQEILGPEAQADEAGCTVKDDECESDAENEQNHDPNVEEFLQQQDTAVIFPEAPEEDQRQGTPEASGHDENGTPDAFSQLLTCPYCDRGYKRFTSLKEHIKYRHEKNEDNFSCSLCSYTFAYRTQLERHMTSHKSGRDQRHVTQSGCNRKFKCTECGKAFKYKHHLKEHLRIHSGEKPYECPNCKKRFSHSGSYSSHISSKKCISLIPVNGRPRTGLKTSQCSSPSLSASPGSPTRPQIRQKIENKPLQEQ | binds | 
Myc-ZEB1-Δ2 (amino acids 1-781) (domain or fragment, UniProt P37275 1-781) MADGPRCKRRKQANPRRNNVTNYNTVVETNSDSDDEDKLHIVEEESVTDAADCEGVPEDDLPTDQTVLPGRSSEREGNAKNCWEDDRKEGQEILGPEAQADEAGCTVKDDECESDAENEQNHDPNVEEFLQQQDTAVIFPEAPEEDQRQGTPEASGHDENGTPDAFSQLLTCPYCDRGYKRFTSLKEHIKYRHEKNEDNFSCSLCSYTFAYRTQLERHMTSHKSGRDQRHVTQSGCNRKFKCTECGKAFKYKHHLKEHLRIHSGEKPYECPNCKKRFSHSGSYSSHISSKKCISLIPVNGRPRTGLKTSQCSSPSLSASPGSPTRPQIRQKIENKPLQEQLSVNQIKTEPVDYEFKPIVVASGINCSTPLQNGVFTGGGPLQATSSPQGMVQAVVLPTVGLVSPISINLSDIQNVLKVAVDGNVIRQVLENNQANLASKEQETINASPIQQGGHSVISAISLPLVDQDGTTKIIINYSLEQPSQLQVVPQNLKKENPVATNSCKSEKLPEDLTVKSEKDKSFEGGVNDSTCLLCDDCPGDINALPELKHYDLKQPTQPPPLPAAEAEKPESSVSSATGDGNLSPSQPPLKNLLSLLKAYYALNAQPSAEELSKIADSVNLPLDVVKKWFEKMQAGQISVQSSEPSSPEPGKVNIPAKNNDQPQSANANEPQDSTVNLQSPLKMTNSPVLPVGSTTNGSRSSTPSPSPLNLSSSRNTQGYLYTAEGAQEEPQVEPLDLSLPKQQGELLERSTITSVYQNSVYSVQEEPLNLSCAKKEPQKDS | binds | 
Myc-ZEB1-Δ3 (amino acids 341-781) (domain or fragment, UniProt P37275 341-781) LSVNQIKTEPVDYEFKPIVVASGINCSTPLQNGVFTGGGPLQATSSPQGMVQAVVLPTVGLVSPISINLSDIQNVLKVAVDGNVIRQVLENNQANLASKEQETINASPIQQGGHSVISAISLPLVDQDGTTKIIINYSLEQPSQLQVVPQNLKKENPVATNSCKSEKLPEDLTVKSEKDKSFEGGVNDSTCLLCDDCPGDINALPELKHYDLKQPTQPPPLPAAEAEKPESSVSSATGDGNLSPSQPPLKNLLSLLKAYYALNAQPSAEELSKIADSVNLPLDVVKKWFEKMQAGQISVQSSEPSSPEPGKVNIPAKNNDQPQSANANEPQDSTVNLQSPLKMTNSPVLPVGSTTNGSRSSTPSPSPLNLSSSRNTQGYLYTAEGAQEEPQVEPLDLSLPKQQGELLERSTITSVYQNSVYSVQEEPLNLSCAKKEPQKDS | no binding | 
Myc-ZEB1-Δ4 (amino acids 341-1,124) (domain or fragment, UniProt P37275 341-1124) LSVNQIKTEPVDYEFKPIVVASGINCSTPLQNGVFTGGGPLQATSSPQGMVQAVVLPTVGLVSPISINLSDIQNVLKVAVDGNVIRQVLENNQANLASKEQETINASPIQQGGHSVISAISLPLVDQDGTTKIIINYSLEQPSQLQVVPQNLKKENPVATNSCKSEKLPEDLTVKSEKDKSFEGGVNDSTCLLCDDCPGDINALPELKHYDLKQPTQPPPLPAAEAEKPESSVSSATGDGNLSPSQPPLKNLLSLLKAYYALNAQPSAEELSKIADSVNLPLDVVKKWFEKMQAGQISVQSSEPSSPEPGKVNIPAKNNDQPQSANANEPQDSTVNLQSPLKMTNSPVLPVGSTTNGSRSSTPSPSPLNLSSSRNTQGYLYTAEGAQEEPQVEPLDLSLPKQQGELLERSTITSVYQNSVYSVQEEPLNLSCAKKEPQKDSCVTDSEPVVNVIPPSANPINIAIPTVTAQLPTIVAIADQNSVPCLRALAANKQTILIPQVAYTYSTTVSPAVQEPPLKVIQPNGNQDERQDTSSEGVSNVEDQNDSDSTPPKKKMRKTENGMYACDLCDKIFQKSSSLLRHKYEHTGKRPHECGICKKAFKHKHHLIEHMRLHSGEKPYQCDKCGKRFSHSGSYSQHMNHRYSYCKREAEERDSTEQEEAGPEILSNEHVGARASPSQGDSDERESLTREEDEDSEKEEEEEDKEMEELQEEKECEKPQGDEEEEEEEEEVEEEEVEEAENEGEEAKTEGLMKDDRAESQASSLGQKVGESSEQVSEEKTNEA | no binding | 
Myc-ZEB1-Δ5 (amino acids 782-1124) (domain or fragment, UniProt P37275 782-1124) CVTDSEPVVNVIPPSANPINIAIPTVTAQLPTIVAIADQNSVPCLRALAANKQTILIPQVAYTYSTTVSPAVQEPPLKVIQPNGNQDERQDTSSEGVSNVEDQNDSDSTPPKKKMRKTENGMYACDLCDKIFQKSSSLLRHKYEHTGKRPHECGICKKAFKHKHHLIEHMRLHSGEKPYQCDKCGKRFSHSGSYSQHMNHRYSYCKREAEERDSTEQEEAGPEILSNEHVGARASPSQGDSDERESLTREEDEDSEKEEEEEDKEMEELQEEKECEKPQGDEEEEEEEEEVEEEEVEEAENEGEEAKTEGLMKDDRAESQASSLGQKVGESSEQVSEEKTNEA | no binding | 
